# The list shows a part of the results.
# Molecular target: T1, OsWOX13 (Oryza sativa, UniProt Q5QMM3 1-267)
# T1 sequence: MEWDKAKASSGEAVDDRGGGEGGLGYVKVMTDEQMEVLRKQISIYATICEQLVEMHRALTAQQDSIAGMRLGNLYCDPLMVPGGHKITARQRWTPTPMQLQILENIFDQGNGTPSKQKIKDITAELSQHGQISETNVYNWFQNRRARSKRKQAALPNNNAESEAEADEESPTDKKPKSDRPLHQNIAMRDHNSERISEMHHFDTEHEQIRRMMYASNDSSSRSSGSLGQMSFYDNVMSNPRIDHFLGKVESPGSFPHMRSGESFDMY
# Assay: protein-binding microarray (RPBM); PBS, 2% BSA, 51.3 ng/ul salmon testes DNA, 50 uM zinc acetate, 200 nM TF, 25 C, 1 h; high values mean tight binding
# Details: protein: recombinant; tags: N-terminal polyhistidine and DsRed monomer fusion (pET32a); label: CyDye5-dUTP incorporated in the synthesized complementary strand; 3' TTTTT single-stranded linker to array surface; dsDNA, one strand shown
# Summary of the method: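 Polyhistidine-tagged DsRed fusions of transcription factors, joined at the N-terminus, were expressed in E. coli BL21-CodonPlus and isolated on Ni–NTA. They were incubated at 200 nM for 1 h at 25 °C on a custom Agilent array, double-stranded and BSA-blocked, in PBS with 2% BSA, salmon testes DNA and 50 µM zinc acetate. The binding signal is per-feature fluorescence intensity (arbitrary units) read on an Axon 4000B scanner after washing.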
row,Sequence,binding signal
1,GCTTGGCACTTGATTTGCTTAGTTTAGCAATATCATCATTCGGAGTCACCTAGTGCAG,3740 fluorescence intensity (a.u.)
2,TGTTGACAAAATTAGCTGTTGCAACGCATACAGACTTCAACGGAGTCACCTAGTGCAG,7410 fluorescence intensity (a.u.)
3,TCGTCGATGATTACAGCTGTTTCATGTGGTTGTCACTGCTCGGAGTCACCTAGTGCAG,7700 fluorescence intensity (a.u.)
4,ATCATAAATTTCTCTTATATAATTTCGCTTATATGGTTATCGGAGTCACCTAGTGCAG,6670 fluorescence intensity (a.u.)
5,CACATCCATATTTGCAATTAATTTACAACCTAATTTACATCGGAGTCACCTAGTGCAG,3360 fluorescence intensity (a.u.)
6,GTGCCAATCAATAATGCTCAGGAAGAGCAAATATGGACCGCGGAGTCACCTAGTGCAG,16500 fluorescence intensity (a.u.)
7,AAGTAATTATTAATTCTTTTCCTATCATTTGATTCATTGTCGGAGTCACCTAGTGCAG,29000 fluorescence intensity (a.u.)
8,TTTATCTAATTAAAATATATTTATAGCTGACTAATAGTCTCGGAGTCACCTAGTGCAG,12200 fluorescence intensity (a.u.)
9,AGCAACGGATTAACATATGATTAATTAAGTATTAATAAAACGGAGTCACCTAGTGCAG,9340 fluorescence intensity (a.u.)
10,AACACATTGGATTGATTGATCTGTCGCGGAACAGATTGACCGGAGTCACCTAGTGCAG,52300 fluorescence intensity (a.u.)
11,TAGCCGTCCAAATCAAATCAGTGGCTAGGATTGCTTGACGCGGAGTCACCTAGTGCAG,3870 fluorescence intensity (a.u.)
12,TGCTTCTAAATTAGTCACTCTGATTTGCCCTTGCCACCAACGGAGTCACCTAGTGCAG,25800 fluorescence intensity (a.u.)
13,ACCAAGTAATTGATATCTAGAAATCCGATACCTAGTACCACGGAGTCACCTAGTGCAG,55000 fluorescence intensity (a.u.)
14,TTGTTGGAATTGAAGTGGATTACATATATGTAGTGCGTTCCGGAGTCACCTAGTGCAG,3830 fluorescence intensity (a.u.)
15,AGTAGAATTTATGTTAATGTGGATAAAATTTGACATCAAACGGAGTCACCTAGTGCAG,4620 fluorescence intensity (a.u.)
16,CCCGGTTTGATCGATCAATCAGCTCATGATCAACACTAAACGGAGTCACCTAGTGCAG,15600 fluorescence intensity (a.u.)
17,CAGTAACTGGCAGGTTTGACGGACTCCAGGTCTTGCCTCTCGGAGTCACCTAGTGCAG,9020 fluorescence intensity (a.u.)
18,AGACAAACTAATTGCACAGTTTGCATATAAATTGCGAGACCGGAGTCACCTAGTGCAG,24400 fluorescence intensity (a.u.)
19,ACTATAGATTTAATAAAACTAACTTGGTGTTATAAACATTCGGAGTCACCTAGTGCAG,4690 fluorescence intensity (a.u.)
20,ATCTTAATTTAAAATTTAGTGTTTATATTACTTGAACAAACGGAGTCACCTAGTGCAG,36000 fluorescence intensity (a.u.)
21,TTGAAGACGTACTAATTATACTCAAAACAAACAGAAGCAACGGAGTCACCTAGTGCAG,3500 fluorescence intensity (a.u.)

row,Sequence,binding signal
1,GAATTAATTAACAATATTGCTAAAGCTCACTGGGGCTGGGCGGAGTCACCTAGTGCAG,33400 fluorescence intensity (a.u.)
2,CGGCCCTAGTATACCATCAATCTAATCTAATGGTCGGATCCGGAGTCACCTAGTGCAG,3380 fluorescence intensity (a.u.)
3,TCTGATTAGTAAATTTCAAGCGAAAGGGACATTGCGGTAGCGGAGTCACCTAGTGCAG,36500 fluorescence intensity (a.u.)
4,AGGAAGTAATAGCTAATGATTTTGGACATGGTGAGTGAAGCGGAGTCACCTAGTGCAG,4310 fluorescence intensity (a.u.)
5,ACAGATAATTTTATAGCCTTATCGATTGGCATACGCTTATCGGAGTCACCTAGTGCAG,10000 fluorescence intensity (a.u.)
6,TCTAAATTAAACACGTCTAAGTTGCAAAAGCACAGTAATACGGAGTCACCTAGTGCAG,5340 fluorescence intensity (a.u.)
7,CTTTACATTAATTACTATCAGTTTCATCCATATCCTAATCCGGAGTCACCTAGTGCAG,7310 fluorescence intensity (a.u.)
8,GGGAGAGAGATCAATCAATATATATCTAGACCTGTATATCCGGAGTCACCTAGTGCAG,11600 fluorescence intensity (a.u.)
9,CGTTGCATTTATTAATTTACCTTTCTTCTTCTCACACAAGCGGAGTCACCTAGTGCAG,3470 fluorescence intensity (a.u.)
10,AACCATAGACGACCTTAATTAGCTCGATCTGCAAGCAATCCGGAGTCACCTAGTGCAG,16000 fluorescence intensity (a.u.)
11,TCCTTGATTAACATCGATAACCTTAAACAAATGAGCACACCGGAGTCACCTAGTGCAG,26300 fluorescence intensity (a.u.)
12,CCATTCAGTTTTGCTATATAATTGTCGATAAATTTTCTTCCGGAGTCACCTAGTGCAG,4590 fluorescence intensity (a.u.)
13,AAATATTAATTTGCACTATAAGTCATCTATTGATATGCATCGGAGTCACCTAGTGCAG,12500 fluorescence intensity (a.u.)
14,TTGATGGGGATTACAGTGAAGAATCTGATATTGATGAGGACGGAGTCACCTAGTGCAG,5240 fluorescence intensity (a.u.)
15,ACACTTGAAATACTTGGGCGGGTAGGATTGGGTCGGGCTCCGGAGTCACCTAGTGCAG,3180 fluorescence intensity (a.u.)
16,GACCAATTGATTTTGGAAAATCATGTTTTGCATTCCATGCCGGAGTCACCTAGTGCAG,33000 fluorescence intensity (a.u.)
17,ACACCATAATGGACACTAAATTACCATATCCTCAAGAAAACGGAGTCACCTAGTGCAG,14200 fluorescence intensity (a.u.)
18,TAGCTAGATTGATAATGTACATATATGAATTTGTATGCGACGGAGTCACCTAGTGCAG,55500 fluorescence intensity (a.u.)
19,ATCCGAACGAGCCCATAATTAGCGTGCATGTAACGTTGCTCGGAGTCACCTAGTGCAG,3650 fluorescence intensity (a.u.)
20,AGTTGCAAATTTTCATTCAATAACAAGCCTACCTACATGCCGGAGTCACCTAGTGCAG,3460 fluorescence intensity (a.u.)
21,TTGCGGTGAGTGATAGTGATTGGATTGGACACGTAAACGTCGGAGTCACCTAGTGCAG,46300 fluorescence intensity (a.u.)

# Source: PMC7819943, “Rice protein-binding microarrays: a tool to detect cis-acting elements near promoter regions in rice”
